# According to the supplement of paper PMC8728848:
# Some of the results follow.
# Tests used:
# Test in all cases: glycan array binding signal (z-score within array); higher = stronger binding
# Settings in all cases: glycan notation: IUPAC condensed, linker removed
# [1] = target: Neu5Ac(a2-6)Gal(b1-4)GlcNAc(b1-2)Man(a1-6)[Man(a1-3)]Man(b1-4)GlcNAc(b1-4)GlcNAc
# Outline: (§1)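 Columns mapping to the same glycan were averaged after glycan names were converted to IUPAC-condensed notation. The data come from 3228 arrays in the Consortium for Functional Glycomics database, limited to those with an available protein sequence. Binding is reported as a within-array Z-score averaged across arrays of one protein sequence and across linkers.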
# [2] = target: Neu5Ac(a2-6)Gal(b1-4)GlcNAc(b1-3)Gal(b1-3)GlcNAc
# Outline: as §1
# [3] = target: Neu5Ac(a2-6)Gal(b1-4)GlcNAc(b1-3)Gal(b1-4)GlcNAc
# Outline: as §1
# [4] = target: Neu5Ac(a2-6)Gal(b1-4)GlcNAc(b1-3)Gal(b1-4)GlcNAc(b1-3)Gal(b1-4)GlcNAc
# Outline: as §1
# [5] = target: Neu5Ac(a2-6)Gal(b1-4)GlcNAc(b1-3)Gal(b1-4)[Fuc(a1-3)]GlcNAc(b1-3)Gal(b1-4)[Fuc(a1-3)]GlcNAc
# Outline: as §1
# [6] = target: Neu5Ac(a2-6)Gal(b1-4)GlcNAc(b1-3)GalNAc
# Outline: as §1
# [7] = target: Neu5Ac(a2-6)Gal(b1-4)GlcNAc(b1-3)[Neu5Ac(a2-6)Gal(b1-4)GlcNAc(b1-6)]GalNAc
# Outline: as §1
# [8] = target: Neu5Ac(a2-6)Gal(b1-4)GlcNAc(b1-6)GalNAc
# Outline: as §1
# [9] = target: Neu5Ac(a2-6)Gal(b1-4)GlcNAc(b1-6)[Gal(b1-3)GlcNAc(b1-3)]Gal(b1-4)Glc
# Outline: as §1
# [10] = target: Neu5Ac(a2-6)Gal(b1-4)GlcNAc6S
# Outline: as §1
# Neu5Ac(a2-6)GalNAc = target: Neu5Ac(a2-6)GalNAc
# Outline: as §1
# [11] = target: Neu5Ac(a2-6)GalNAc(b1-4)GlcNAc
# Outline: as §1
# [12] = target: Neu5Ac(a2-6)GalNAc(b1-4)GlcNAc6S
# Outline: as §1
# [13] = target: Neu5Ac(a2-6)GlcNAc(b1-4)GlcNAc
# Outline: as §1
# [14] = target: Neu5Ac(a2-6)GlcNAc(b1-4)GlcNAc(b1-4)GlcNAc
# Outline: as §1
# Neu5Ac(a2-8)Neu5Ac = target: Neu5Ac(a2-8)Neu5Ac
# Outline: as §1
# [15] = target: Neu5Ac(a2-8)Neu5Ac(a2-3)Gal(b1-3)GalNAc(b1-4)[Neu5Ac(a2-8)Neu5Ac(a2-3)]Gal(b1-4)Glc
# Outline: as §1
# [16] = target: Neu5Ac(a2-8)Neu5Ac(a2-3)Gal(b1-4)Glc
# Outline: as §1
# [17] = target: Neu5Ac(a2-8)Neu5Ac(a2-3)[Gal(b1-3)GalNAc(b1-4)]Gal(b1-4)Glc
# Outline: as §1
# [18] = target: Neu5Ac(a2-8)Neu5Ac(a2-3)[GalNAc(b1-4)]Gal(b1-4)Glc
# Outline: as §1
# [19] = target: Neu5Ac(a2-8)Neu5Ac(a2-8)Neu5Ac
# Outline: as §1
# [20] = target: Neu5Ac(a2-8)Neu5Ac(a2-8)Neu5Ac(a2-3)Gal(b1-4)Glc
# Outline: as §1
# [21] = target: Neu5Ac(a2-8)Neu5Ac(a2-8)Neu5Ac(a2-3)[GalNAc(b1-4)]Gal(b1-4)Glc
# Outline: as §1
# [22] = target: Neu5Ac(a2-8)Neu5Ac(a2-8)Neu5Ac(a2-8)Neu5Ac(a2-3)[GalNAc(b1-4)]Gal(b1-4)Glc
# Outline: as §1
# [23] = target: Neu5Ac(b2-6)Gal(b1-4)GlcNAc
# Outline: as §1
# Neu5Ac(b2-6)GalNAc = target: Neu5Ac(b2-6)GalNAc
# Outline: as §1
# [24] = target: Neu5Ac9Ac(a2-3)Gal(b1-3)GlcNAc
# Outline: as §1
# [25] = target: Neu5Ac9Ac(a2-3)Gal(b1-4)GlcNAc
# Outline: as §1
# [26] = target: Neu5Ac9Ac(a2-6)Gal(b1-4)GlcNAc
# Outline: as §1
# [27] = target: Neu5Gc(a2-3)Gal(b1-3)GlcNAc
# Outline: as §1
# [28] = target: Neu5Gc(a2-3)Gal(b1-3)[Fuc(a1-4)]GlcNAc
# Outline: as §1
# Neu5Gc(a2-3)Gal(b1-4)Glc = target: Neu5Gc(a2-3)Gal(b1-4)Glc
# Outline: as §1
# [29] = target: Neu5Gc(a2-3)Gal(b1-4)GlcNAc
# Outline: as §1
# [30] = target: Neu5Gc(a2-3)Gal(b1-4)[Fuc(a1-3)]GlcNAc
# Outline: as §1
# [31] = target: Neu5Gc(a2-6)Gal(b1-4)GlcNAc
# Outline: as §1
# Neu5Gc(a2-6)GalNAc = target: Neu5Gc(a2-6)GalNAc
# Outline: as §1
# [32] = target: Neu5Gc(b2-6)Gal(b1-4)GlcNAc
# Outline: as §1
binder,measurement,setting,value
CCL1 (Coprinopsis cinerea) (protein) MDTQAKPPAGRYVIYNRVLSPNGEKLALTYPGYQREALTLTPLHHSANQIWILNNWDATTSSLTPETARNTQVGWGSGNVPIVLPPGNYVWTLASSAGGYIIQDGGKTVYWNAGEAVANTKVSIGGDNGLQARWIFERV,glycan array binding signal (z-score),[1],-0.139
same,glycan array binding signal (z-score),[2],-0.147
same,glycan array binding signal (z-score),[3],-0.152
same,glycan array binding signal (z-score),[4],-0.147
same,glycan array binding signal (z-score),[5],0.325
same,glycan array binding signal (z-score),[6],0.034
same,glycan array binding signal (z-score),[7],-0.128
same,glycan array binding signal (z-score),[8],-0.1
same,glycan array binding signal (z-score),[9],-0.149
same,glycan array binding signal (z-score),[10],-0.146
same,glycan array binding signal (z-score),Neu5Ac(a2-6)GalNAc,-0.161
same,glycan array binding signal (z-score),[11],-0.157
same,glycan array binding signal (z-score),[12],-0.056
same,glycan array binding signal (z-score),[13],-0.147
same,glycan array binding signal (z-score),[14],-0.15
same,glycan array binding signal (z-score),Neu5Ac(a2-8)Neu5Ac,-0.131
same,glycan array binding signal (z-score),[15],-0.163
same,glycan array binding signal (z-score),[16],-0.166
same,glycan array binding signal (z-score),[17],-0.084
same,glycan array binding signal (z-score),[18],-0.127
same,glycan array binding signal (z-score),[19],-0.134
same,glycan array binding signal (z-score),[20],-0.123
same,glycan array binding signal (z-score),[21],-0.118
same,glycan array binding signal (z-score),[22],-0.108
same,glycan array binding signal (z-score),[23],-0.163
same,glycan array binding signal (z-score),Neu5Ac(b2-6)GalNAc,-0.145
same,glycan array binding signal (z-score),[24],-0.15
same,glycan array binding signal (z-score),[25],-0.145
same,glycan array binding signal (z-score),[26],-0.161
same,glycan array binding signal (z-score),[27],-0.15
same,glycan array binding signal (z-score),[28],-0.164
same,glycan array binding signal (z-score),Neu5Gc(a2-3)Gal(b1-4)Glc,-0.129
same,glycan array binding signal (z-score),[29],-0.158
same,glycan array binding signal (z-score),[30],0.81
same,glycan array binding signal (z-score),[31],-0.133
same,glycan array binding signal (z-score),Neu5Gc(a2-6)GalNAc,-0.136
same,glycan array binding signal (z-score),[32],-0.147
